According to PubChem BioAssay AID588591 (National Center for Advancing Translational Sciences (NCATS), 2011):
Hit rate of the full screen: of about 390,000 compounds, about 4,700 (1.2%) were called active. This list was built around the results that the source calls inconclusive (neither active nor inactive); the mix of calls is not that of the screen. Calls come from the whole dose curve; as a rule, active = well fitted inhibition curve with a large enough effect; inconclusive = small, poorly fitted or top-dose-only effect, or another doubt; inactive = no such curve, though single readings can be large or run the other way. A potency beside an inconclusive call is a rough fit, not a confirmed value.

Target: DNA polymerase eta (Homo sapiens) (UniProt Q9Y253)
UniProt Q9Y253, sequence (Q9Y253 whole entry, looked up): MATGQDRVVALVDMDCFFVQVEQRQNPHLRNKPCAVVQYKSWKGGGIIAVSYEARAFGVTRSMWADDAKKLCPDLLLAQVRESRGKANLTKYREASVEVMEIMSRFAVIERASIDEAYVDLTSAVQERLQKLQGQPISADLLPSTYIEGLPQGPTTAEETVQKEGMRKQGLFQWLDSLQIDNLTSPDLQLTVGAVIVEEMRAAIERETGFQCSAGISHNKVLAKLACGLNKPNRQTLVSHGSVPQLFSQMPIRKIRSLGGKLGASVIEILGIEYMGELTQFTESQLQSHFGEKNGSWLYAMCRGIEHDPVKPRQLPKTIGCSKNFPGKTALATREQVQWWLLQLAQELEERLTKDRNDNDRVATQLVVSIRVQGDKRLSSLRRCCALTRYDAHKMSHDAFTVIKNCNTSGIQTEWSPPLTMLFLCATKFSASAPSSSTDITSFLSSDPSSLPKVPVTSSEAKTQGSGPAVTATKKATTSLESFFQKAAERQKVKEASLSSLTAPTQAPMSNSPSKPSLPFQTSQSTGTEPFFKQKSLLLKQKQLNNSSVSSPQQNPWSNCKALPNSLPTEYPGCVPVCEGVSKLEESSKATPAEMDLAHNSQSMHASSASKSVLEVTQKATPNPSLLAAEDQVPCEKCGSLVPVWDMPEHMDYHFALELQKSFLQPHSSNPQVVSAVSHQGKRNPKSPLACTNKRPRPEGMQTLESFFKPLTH
Assay: qHTS for Inhibitors of Polymerase Eta
Details: recombinant Pol eta, fluorescent DNA replication assay; series mostly up to 114 µM; activity change, negative = inhibition: at the top concentration
Procedure, shortened: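 Pol eta (10 nM) was preincubated with compounds for 15 min at room temperature, after which fluorescent replication substrate (50 nM final) was added to start the reaction. Fluorescence was read kinetically at 0 and 10 min.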
% is set by controls: 0 for no effect and ±100 for the full control effect; potency is the fitted concentration of half-maximal effect; tags give direction and shape of the fitted curve.

| Compound | Potency | activity change, negative = inhibition |
| --- | --- | --- |
| CCc1ccc(CNC(=O)C2CCCN(S(=O)(=O)N(CC)c3ccccc3)C2)cc1 (stereo not given) | inconclusive: 79.4 µM [inhibitor, partial curve, poor fit] |  |
| COC(=O)c1sc(-c2ccc(C(C)(C)C)cc2)cc1NC(=O)CSCC(=O)O | active: 89.1 µM |  |
| COCc1cc(=O)n2[nH]c(N)nc2n1 | inconclusive: 44.7 µM [inhibitor, partial curve, poor fit] |  |
| CC1CC1C(=O)OCC(=O)Nc1ncc(Cl)cc1Cl (stereo not given) | active: 28.2 µM |  |
| CN(C)c1ccc(NC(=O)CCSc2nc(-c3ccco3)cc(C(F)(F)F)n2)cc1 |  | inactive: -23.4% |
| Cc1cccc(NC(=O)C(C)Sc2nc3nc(C)cc(C)n3n2)c1 (stereo not given) |  | inactive: -17% |
| COc1cc(NC(=O)CSc2nccc(C)n2)c(C)cc1[N+](=O)[O-] | inconclusive: 20 µM [inhibitor, partial curve, poor fit] |  |
| Cc1ccc(-n2nc(-c3cccnc3)cc2C(=O)N2CCOCC2)c(C)c1 | inconclusive: 31.6 µM [inhibitor, partial curve, poor fit] |  |
| Cc1csc(NC(=O)CSc2nc3[nH]c(=O)cc(O)c3s2)n1 | active: 28.2 µM |  |
| CCCC(=O)NC(c1ccc2c(c1)OCO2)c1cc(Cl)c2cccnc2c1O (stereo not given) | inconclusive: 17.8 µM [inhibitor, partial curve, poor fit] |  |
| COc1ccc(/C=N/NC(=O)COc2cccc3cccnc23)cc1OC | inconclusive: 22.4 µM [inhibitor, partial curve, poor fit] |  |
| CCOC(=O)c1c(NC(C)=O)sc2c(O)cccc12 |  | inactive: -14.2% |
| O=C1CCCC2=C1C(c1ccc(O)c(O)c1)Nc1ccc3ccccc3c12 (stereo not given) | inconclusive: 56.2 µM [inhibitor, partial curve, poor fit] |  |
| COc1ccc(N(C(=O)c2snc(C(N)=O)c2N)C(C(=O)NC2CCCCC2)c2ccc(F)cc2)c(OC)c1 (stereo not given) | active: 22.4 µM |  |
| COc1ccc(C(=O)COC(=O)c2n[nH]c3ccccc23)c(OC)c1 | inconclusive: 35.5 µM [inhibitor, partial curve, poor fit] |  |
| CC(=O)c1cc(-c2ccc(F)cc2)n(CCC(=O)Nc2cc(C)[nH]n2)c1C |  | inactive: -15.2% |
| O=C(COc1ccc2c(-c3ccccc3)cc(=O)oc2c1)NCc1cccs1 | inconclusive: 28.2 µM [inhibitor, partial curve, poor fit] |  |
| CN(C)c1ccc(C(CNC(=O)c2ccc(F)cc2)c2c[nH]c3ccccc23)cc1 (stereo not given) | inconclusive: 89.1 µM [inhibitor, partial curve, poor fit] |  |
| CCOc1cc(/C=C2\N=C(SC)SC2=O)cc([N+](=O)[O-])c1OC(C)=O | inconclusive: 20 µM [inhibitor, full curve, poor fit] |  |
| Cc1cc(-c2nnc3sc(C4CCCCC4)nn23)n[nH]1 | inconclusive: 89.1 µM [inhibitor, single point] |  |

| Compound | Potency | activity change, negative = inhibition |
| --- | --- | --- |
| c1ccc(Cc2nnc3sc(-c4ccco4)nn23)cc1 | active: 25.1 µM |  |
| CCOC(=O)C1CCCN(C(=O)c2cc(-c3ccc(C)cc3)nc3ccccc23)C1 (stereo not given) | inconclusive: 15.8 µM [inhibitor, full curve, poor fit] |  |
| Cc1ccc(NC2=CC(=O)CC(c3ccc(Cl)cc3)C2)cc1 (stereo not given) | inconclusive: 25.1 µM [inhibitor, partial curve, poor fit] |  |
| Cc1ccc(/C=N/n2c(C3CCCCC3)n[nH]c2=S)cc1 | inconclusive: 79.4 µM [inhibitor, partial curve, poor fit] |  |
| C=CCNC(=O)/C(C#N)=C\c1cc(Cl)c(O)c(OCC)c1 |  | inactive: -13.7% |
| Cc1cccc(NC(=S)N=Nc2c(O)[nH]c3ccccc23)c1 | inconclusive: 22.4 µM [inhibitor, single point] |  |
| Clc1ccc(N/N=C/c2ccncc2)cc1Cl | inconclusive: 31.6 µM [inhibitor, single point] |  |
| CC(C)CNC(=O)COC(=O)c1c2c(nc3ccccc13)/C(=C\c1cccs1)CC2 | inconclusive: 15.8 µM [inhibitor, partial curve] |  |
| CC(=O)Nc1ccc(C(=O)OCc2ccc(Cl)c(Cl)c2)cc1 | inconclusive: 56.2 µM [inhibitor, partial curve, poor fit] |  |
| CCOC(=O)C(NC(=O)c1cccc(Cl)c1)(OCc1ccccc1)C(F)(F)F (stereo not given) | inconclusive: 89.1 µM [inhibitor, partial curve, poor fit] |  |
| Cc1c(C(=O)NCc2ccccc2)sc2nc3n(c(=O)c12)CCC3 |  | inactive: -14.5% |
| O=C(Nc1ccc(S(=O)(=O)NC2=NCCCCC2)cc1)c1ccc([N+](=O)[O-])s1 | inconclusive: 14.1 µM [inhibitor, partial curve, poor fit] |  |
| CCOc1cc(/C=C2\SC(=N)N(c3nccs3)C2=O)ccc1OCCN1CCOCC1 | inconclusive: 15.8 µM [inhibitor, partial curve, poor fit] |  |
| O=C(CSc1nnc2c3ccccc3c3ccccc3c2n1)Nc1ccccc1F | active: 31.6 µM |  |
| CC1CN(S(=O)(=O)c2cccc(C(=O)OC/C(O)=C(\C#N)c3nc4ccccc4[nH]3)c2)CC(C)O1 (stereo not given) | inconclusive: 20 µM [inhibitor, partial curve, poor fit] |  |
| Cc1ccc(-c2n[nH]c(=S)n2/N=C/C=C/c2ccccc2[N+](=O)[O-])cc1 | inconclusive: 31.6 µM [inhibitor, single point] |  |
| O=C1CN(C(=O)Cn2ncc(Cl)c(Cl)c2=O)c2ccccc2N1 | inconclusive: 31.6 µM [inhibitor, partial curve, poor fit] |  |
| CCc1ccc2nc(N(CCN(C)C)C(=O)c3ccc4ccccc4c3)sc2c1 | inconclusive: 44.7 µM [inhibitor, partial curve, poor fit] |  |
| CSc1cccc(NC(=O)CN(c2ccccc2)S(=O)(=O)N(C)C)c1 | inconclusive: 100 µM [inhibitor, single point] |  |
| CCOC(=O)c1sc(N2N=C(C)/C(=C\c3ccc(OCC(=O)OC)cc3)C2=O)nc1C | inconclusive: 89.1 µM [inhibitor, partial curve, poor fit] |  |
